Measurements reported in PubChem BioAssay AID1508624 (National Center for Advancing Translational Sciences (NCATS), 2021).
The whole screen tested about 48,000 compounds, of which about 120 (0.25%) were called active. About 4% were inconclusive and are not listed. Calls come from the whole dose curve; as a rule, active = well fitted activation curve with a large enough effect; inconclusive = small, poorly fitted or top-dose-only effect, or another doubt; inactive = no such curve, though single readings can be large or run the other way. Some of the results follow.

Test: Primary qHTS for Identification of Small Molecule Activators of Huntingtin-Antisense Promoter Activity; note: nearly all actives have a fitted effect of over 55% in size
Conditions: HEK293 HTT-AS promoter firefly luciferase reporter, 24 h; series mostly up to 57.5 µM; activity change, positive = activation: at the top concentration
Outline: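 HEK293 cells carrying firefly luciferase reporters were seeded at 2,500 per well in Opti-MEM and cultured for 24 h. They were then treated with compounds at up to 57.5 uM final for 24 h at 37 degrees C before Dual-Glo luminescence readout.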

Activity change, positive = activation, inactive:
CCc1ccccc1N(C)C(=O)c1cnc(N2CCOCC2)c2ccccc12 -16.6%, Cc1cc(Br)ccc1NC(=O)c1cn(C2CCCC2)c(=O)c2c1c1ccccc1n2C 6.33%, Cc1ccc(Cc2nc3ccccc3nc2SCC(=O)NCc2ccc(F)cc2)cc1 -15.7%, Cc1cccc(C(=O)N2CCc3cc(CNC(=O)Cc4ccc(F)cc4)ccc32)c1 -43.4%, COc1ccc(CCNc2ncnc3c2c(-c2ccccc2)cn3-c2ccc(F)cc2)cc1OC -42.1%, CCC(=O)C1=C(c2cccc([N+](=O)[O-])c2)N(C(=O)CC)n2c(nnc2-c2ccccc2)S1 -18.4%, CN(C)c1ccc(CNC(=O)C2CCN(S(=O)(=O)c3ccc4c(ccn4C)c3)CC2)cc1 -16%, Cc1ccc(C)c(Nc2nn3c(=O)c4ccc(C(=O)NCCc5ccccc5)cc4nc3s2)c1 -2.95%, Cc1n[nH]c(C)c1S(=O)(=O)N1CCCC(C(=O)Nc2ccc(Cl)cc2)C1 (centres undefined) -46.7%, CCN(C(=O)Cn1cc(S(=O)(=O)Cc2ccccc2Cl)c2ccccc21)c1ccccc1 -35.9%, CN(C)c1ccc2nc3ccc(=[N+](C)C)cc-3sc2c1, Cc1ccc(N2CCN(C(=O)c3c4c(nc5ccccc35)C(=O)N(C3CCCCC3)C4)CC2)c(C)c1 4.24%, COc1ccc(C(=O)Nc2nc3c(s2)CCc2cc(OC)ccc2-3)cc1 0.846%, COCCCn1c(SCC(=O)NCc2ccccc2)nc2c(sc3ccccc32)c1=O -5.2%, CCn1cc(C(=O)NCCCN(CC(C)C)CC(C)C)c(=O)c2cc(S(=O)(=O)N(C)C3CCCCC3)ccc21 1.83%, COc1ccc(NC(=O)CCc2nnc3n(C)c(=O)c4sccc4n23)cc1Cl -8.67%, COc1cccc(N2C(=O)N(Cc3ccc(C#N)cc3)c3ccccc3S2(=O)=O)c1 -27.7%, CCc1ccccc1NC(=O)Cn1c(=O)n(CC2CCC(C(=O)NCCc3ccccc3)CC2)c(=O)c2ccccc21 (centres undefined) -13.7%, O=S(=O)(c1ccccc1F)N1CCC(Oc2ccc(-n3cnnn3)cc2)CC1 -37.6%, CCC(=O)N1CCc2cc(Br)cc(S(=O)(=O)CCC(=O)Nc3ccc(C)c(C)c3)c21 2.67%, COc1ccc(-c2noc(-c3ccc(NCc4cccnc4)c([N+](=O)[O-])c3)n2)cc1 -6.62%, COc1ccc(CCNC(=O)Cn2c(=O)n(-c3cc(OC)c(OC)c(OC)c3)c(=O)c3ccccc32)cc1OC 0%, COc1cccc(CNc2nc3c(-c4ccccc4)nnn3c3ccccc23)c1 5.76%, Cc1ccc2oc(=O)c3cnn(CC(=O)N4CCN(c5cc(Cl)ccc5C)CC4)c3c2c1 -5.4%, CN1C(C(=O)Nc2ccccn2)=C(O)c2sccc2S1(=O)=O, CCOc1ccc(NC(=O)c2cc(S(=O)(=O)N3CCCCC3)c[nH]2)cc1 -23.9%, CC(CSC(=O)c1ccccc1)C(=O)N1C[C@@H](Sc2ccccc2)C[C@H]1C(=O)O (some centres undefined) -7.05% [at 25.1 µM, percent change from vehicle, -100% = no light], CCOc1ccc(CCNCc2c(C(=O)O)n(Cc3ccc(C)cc3)c3cc(OC)ccc23)cc1 -20.1%, CN(Cc1ccccc1)C(=O)CSc1nc2ccsc2c(=O)n1-c1ccc(F)cc1 -18.2%, CC(C)C(C)C=CC(C)C1CCC2C3=CC=C4CC(O)CCC4(C)C3CCC21C (centres undefined) -21.1%, COc1ccc(C(=O)/C=C/c2cn(CC(O)CN(CC(C)C)CC(C)C)c3ccccc23)cc1 (centres undefined) -32.2%, CCOC(=O)c1nc(N2CCN(c3ccc(F)cc3)CC2)c2c(C)noc2n1 -13.8%, CCn1c(=O)n(-c2ccc(F)c(Cl)c2)c(=O)c2c3c(sc21)CN(C(C)=O)CC3 0.082%, COc1cccc(C(=O)Nc2ccc(-c3nc4ccccc4s3)cc2Cl)c1 9.94%, COc1cccc(N2C(=O)CSC23C(=O)N(Cc2ccccc2)c2ccccc23)c1 (centres undefined) -18%, Cc1ccc(C)c(CSc2cn(CC(=O)N3CCCCCC3)c3ccccc23)c1 -6.43%, COc1ccc(-c2csc3nc(-c4ccc(F)cc4)oc(=O)c23)cc1 1.15%, COc1ccc(NC(=O)CCCc2nnc3n(CCC(C)C)c(=O)c4sccc4n23)c(OC)c1 -3.2%, COCCNC(=O)c1ccc(-n2c(-c3ccccc3)cc3c2CCCCC3)cc1 8.94%, COc1ccc(C2=NS(=O)(=O)N(C)C(C(=O)NCc3ccccc3)=C2)cc1OC -13%, Cc1ccc(S(=O)(=O)c2nc(-c3ccccc3Cl)oc2N2CCCCCC2)cc1 -24.7%, CCc1ccc(NC(=O)C(=O)NCC(c2ccc3c(c2)OCO3)N2CCOCC2)cc1 (centres undefined) -14.9%, Cc1ccc(Cl)c(NC(=O)Nc2csc3c2CCCC3)c1 5.84%, CN1C(=O)c2ccccc2Sc2ccc(NC(=O)COc3ccccc3)cc21 -47.9%, Cc1ncc([N+](=O)[O-])n1CC(O)CCl (centres undefined) -7.57%, Cc1oc(-c2ccc(Cl)cc2)nc1Cn1c(=O)cc(C)c2c(C)nn(-c3cccc(F)c3)c21 -15.6%, CCn1cc(C(=O)N2CCN(c3ccc(F)cc3)CC2)c(=O)c2cc(S(=O)(=O)N3CCOCC3)ccc21 -2.25%, COc1ccc(NC(=O)C(=O)NCC(c2ccc3c(c2)OCO3)N2CCN(C)CC2)cc1 (centres undefined) -7.27%, COc1ccc(N2CCN(c3c4c(nc5nncn35)CCC4)CC2)cc1 -52.3%, CCOc1cc(CNC(=O)CCCn2c(=O)c3cccn3c3cccnc32)cc(OCC)c1OCC -9.74%, COc1ccc(CCNC(=O)c2cc(Nc3cc(C)cc(C)c3)nc3ccccc23)cc1OC -32.9%, CCc1ccccc1NC(=O)CSc1ncc(S(=O)(=O)c2ccccc2)c(N)n1 -27.3%, CC(=O)Nc1cccc(NC(=O)CSc2cn(CC(=O)N(C(C)C)C(C)C)c3ccccc23)c1 -14.6%, CCc1ccccc1NC(=O)Cn1nnc(-c2nc(-c3ccc(C)cc3)no2)c1N -8.39%, COc1ccc(C[C@@H](C)[C@@H](C)Cc2ccc(OC)c(OC)c2)cc1OC -51.3%, CC[C@H]1CN2CCc3cc(OC)c(OC)cc3[C@H]2C[C@@H]1C[C@@H]1NCCc2cc(OC)c(OC)cc21 -35.1%, Cc1ccc2c(c1)sc1nc(-c3cc4ccccc4oc3=O)cn12 -86.6%, CCOC(=O)c1ccccc1NC(=O)CN1C(=O)CC(c2ccco2)Sc2ccccc21 (centres undefined) -27.4%, O=C(c1ccc2c(c1)N(Cc1ccc(Cl)cc1)C(=O)c1ccccc1S2=O)N1CCN(c2ccccc2F)CC1 (centres undefined) -30.4%
